Laboratory results published in PMC10726135.
This is one part of the list. At the low end of the ranking the order means little. Measured with an extract: partners may take part in the binding.

These sequences were tested against T1, HNF4alpha2 (COS-7 nuclear extract) (UniProt P41235) (assay: protein-binding microarray). Conditions: COS-7 nuclear extract on double-stranded Agilent 4x180k PBM; binding buffer, salt, pH and temperature not given; high values mean tight binding; double strand, one strand shown; sequences stand for … in …GCCTAGGGAGATTAGAGTATCGGTCGA.
T1 sequence: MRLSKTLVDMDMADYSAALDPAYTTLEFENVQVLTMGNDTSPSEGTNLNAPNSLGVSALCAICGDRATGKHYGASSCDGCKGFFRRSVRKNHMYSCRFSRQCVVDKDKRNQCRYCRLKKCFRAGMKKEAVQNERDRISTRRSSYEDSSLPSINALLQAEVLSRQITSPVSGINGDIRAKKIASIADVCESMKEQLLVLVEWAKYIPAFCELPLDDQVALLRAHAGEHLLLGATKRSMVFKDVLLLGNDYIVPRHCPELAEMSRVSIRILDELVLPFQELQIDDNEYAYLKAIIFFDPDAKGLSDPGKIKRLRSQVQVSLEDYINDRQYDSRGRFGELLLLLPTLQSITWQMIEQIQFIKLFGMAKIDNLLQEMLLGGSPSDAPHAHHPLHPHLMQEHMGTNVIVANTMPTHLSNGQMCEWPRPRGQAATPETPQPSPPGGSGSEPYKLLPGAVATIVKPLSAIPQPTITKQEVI
Sequence TAATCAGCTTAAGCATACAGATTACATCTC has a binding signal (log2 normalized intensity) of -0.798. With ACAAGACCACAAGGTGGCGATAACTCCTTT the binding signal (log2 normalized intensity) was -1.06. For ACCTCATTGTGATGTGTGCGTTCATCTCAC, the binding signal (log2 normalized intensity) was 2.09. Sequence GTGGGAGGCCAAGAGATAAAAGAGAAGATA has a binding signal (log2 normalized intensity) of -1.08. Work on AGCTCTAGAACGCTGACTCCGGGGAGCAGG yielded a binding signal (log2 normalized intensity) of -1.15. For GTCCCTGCTTGATAAGACTGACAACCGGCT, the binding signal (log2 normalized intensity) was -1.21. Work on TCCTCTTATCTTCAGGTATCCTTAAACACT yielded a binding signal (log2 normalized intensity) of 0.481. Work on TGGAACTGACATGCTGTCACTTCTGCTGCA yielded a binding signal (log2 normalized intensity) of -1.23. TTCTCAATGTCTTTCCTGCAGAGGGACTGA gave a binding signal (log2 normalized intensity) of 1.72. TTGTTTAGGTACAAAGTCCATTGGAAGCCA showed a binding signal (log2 normalized intensity) of 5.82. CCAACATTCCAGAGAAGCACATCCAGGCAG showed a binding signal (log2 normalized intensity) of -1.15. With GACAATAATGAATAAGCACGTTAGAGAAAA the binding signal (log2 normalized intensity) was -1.06. Work on GCCAAACTTGGGTTTATGGCTTATGCATGT yielded a binding signal (log2 normalized intensity) of 1. In the case of TAATCAGAGCAGGAATTCTGATCTTTGACC, the binding signal (log2 normalized intensity) is reported as 7.18. Work on TATGGCAGGGTCGGAATGTCTGGGCAAAGG yielded a binding signal (log2 normalized intensity) of 1.35. CACCCACTTGGATAATTTCTTATAAGCCGA was tested, and the binding signal (log2 normalized intensity) was -1.04. TCCACAGAGCACAGGATCCAGAGGTCACCC gave a binding signal (log2 normalized intensity) of 2.54. GTTGGAAAAAAAAAAAAGTAGTAGGAGGAG showed a binding signal (log2 normalized intensity) of -1.11. Sequence GCAATGCCTCGCCCTGCTTCGGCTCGCGCA has a binding signal (log2 normalized intensity) of -1.15. For TGGGCAAGATGGCTCTCCCGGGGCGGGGGT, the binding signal (log2 normalized intensity) was -1.06. CTCCAGGTACAAGGATAAATACTTCTCCTC showed a binding signal (log2 normalized intensity) of -1.15. For CCCGGTGCGCTGGCCTTGCTTTTCACAGTC, the binding signal (log2 normalized intensity) was -1.14. For GTAAAGTCTGGCATACAGGGTCCAAAGGTG, the binding signal (log2 normalized intensity) was 5.94. TTGCATGAGAATCTGACCTTTGGTTAACTT was tested, and the binding signal (log2 normalized intensity) was 4.89. Sequence CTGGCAGCACCTGAAGAATTTGGACTTTGC has a binding signal (log2 normalized intensity) of 7.7. CAGGATCTCAGCCGCGCGGCTTCAGAGGCC was tested, and the binding signal (log2 normalized intensity) was -1.25. In the case of CACATTGTTTTGGAGTTAGCTGTCTTTCTG, the binding signal (log2 normalized intensity) is reported as 1.47. AGGTAGTCCCTGCTCCACGCAAACACAAAA gave a binding signal (log2 normalized intensity) of -1.02. Sequence TGGCAGGGGCGCGGCCTAATGCCTGGGAAA has a binding signal (log2 normalized intensity) of -1.1. For GAAGACCTTCAACTGATTAGATAAGGTTCA, the binding signal (log2 normalized intensity) was 0.886. TCAGACTGCTTCTCTGCTGGGGCCCTCACG was tested, and the binding signal (log2 normalized intensity) was -1.13. Work on TAGGTGCTCTTGGCTAAGACAGGGGCTATT yielded a binding signal (log2 normalized intensity) of -0.628. Sequence TTTCACCTGGGGCCTTGGGCCACCTGAGAC has a binding signal (log2 normalized intensity) of -1.01. With CAGAGTAAACAGGTAAACAGCTGTGCCATG the binding signal (log2 normalized intensity) was -1.04. With TTTTCCTTTGTTGGTTTTGCCCGAGGTCTG the binding signal (log2 normalized intensity) was 1.86. AAAGATTGCATGAGATTTTGCTCAACAAAT showed a binding signal (log2 normalized intensity) of -0.952. For GAGAAATCACGGACTATCCCCGTCCGCGGA, the binding signal (log2 normalized intensity) was -1.18. TTCCTGGGCTCAAACAATCCTCCCACCTCA showed a binding signal (log2 normalized intensity) of 1.49. Sequence GACTGGGTGTGGGGGTGGAGAAGGAAGGGG has a binding signal (log2 normalized intensity) of -1.01. CAGTGAAAACAGCCCTAACCAGGGGTGGGG showed a binding signal (log2 normalized intensity) of -1.13. For TTCTCAAACCTTCCAAAGTTCAACCTCATT, the binding signal (log2 normalized intensity) was 2.3. Sequence GAGACTTTGGACTTTGGACTTGGGACTTTC has a binding signal (log2 normalized intensity) of 9.27. In the case of TGGAGCATGACCCTTTGCAGGTGGGAGAGG, the binding signal (log2 normalized intensity) is reported as 0.139. CAGCCAGCAGGGGGCGCAGAAGGGATGGGA showed a binding signal (log2 normalized intensity) of -1.13. In the case of CAACTGTGTGTGGCCTGCACAGTTGCACAA, the binding signal (log2 normalized intensity) is reported as -1.2. ATGTGAAGCTTGCTGATTACATAGGAGGCT gave a binding signal (log2 normalized intensity) of -1.19. GGTTATGCAGAGCTTAGTTTGCCACGGTCA was tested, and the binding signal (log2 normalized intensity) was 1.32. In the case of TAGAATTTGAACTATGGTCATCTGAGGGAA, the binding signal (log2 normalized intensity) is reported as 1.32. With AGAGAGAGGGAGAGTGGCCTTTGGAATCAA the binding signal (log2 normalized intensity) was 3.05. Sequence GATGGAACAGTGTAACACATGGCATAGTTG has a binding signal (log2 normalized intensity) of 1.11. Work on GAGGAGTGGCCATGATGCCATCTGGTGAAG yielded a binding signal (log2 normalized intensity) of -0.987. Work on CCACAATTACTGAAGTTCCAGAGCCTTCAA yielded a binding signal (log2 normalized intensity) of -1.1. Work on AGATAGCACCAGCCCATTAATCAAGGCTGC yielded a binding signal (log2 normalized intensity) of -1.07. In the case of TACTTAATGATCTTGGCTGCTTTAGACATG, the binding signal (log2 normalized intensity) is reported as 0.616. TTACAAAACAGGTTCTTCCACGACTCCCCC was tested, and the binding signal (log2 normalized intensity) was 3.73. Sequence CCCCTCCTGTCAGTTTATTTACTGTCCTCA has a binding signal (log2 normalized intensity) of 1.32. For TAACCTTTGACCATCCACGGGTCCATGATT, the binding signal (log2 normalized intensity) was 4.42. Sequence CCAGCTGGTTTGCCTCTCTTAGGTGACAGC has a binding signal (log2 normalized intensity) of 0.473. AGGTGAATGTACAAAGGTCAACGGCACAAG showed a binding signal (log2 normalized intensity) of 4.49. With GTGTATGTGTGTGTACACATTGATATGTTT the binding signal (log2 normalized intensity) was 2.01. Sequence AGAGCGATCAAAGGTCACAGAGACCACAGG has a binding signal (log2 normalized intensity) of 4.83. TGTGTCGATGTTAACGCTAAAGAGGTATCA gave a binding signal (log2 normalized intensity) of 1.54. Sequence GCTCCTATCATCCCTATCACTCAAGAAATG has a binding signal (log2 normalized intensity) of 0.99. Work on TCCTACTTCTGTTTAAACTGATAACCTTGC yielded a binding signal (log2 normalized intensity) of 1.49. CTTTATTATCCCAGTAGAGAAACAAATCTG was tested, and the binding signal (log2 normalized intensity) was 0.696. With AGACTCCTGCATATCCTGACTGCTGACCTT the binding signal (log2 normalized intensity) was 3.33. For GGGGCCTTGCAATGAGGCGACATCAAAGCA, the binding signal (log2 normalized intensity) was -1.24. With ATTCCCTCTAATCTGGGACAAGGGGGAGGA the binding signal (log2 normalized intensity) was -1.13. With GTGTAAACTTTGCAGCAGATAATTACCTGG the binding signal (log2 normalized intensity) was -1.1. For TTCCTTATCTGTAAAATGGACATAGTAACA, the binding signal (log2 normalized intensity) was 1.41. CAGCATAGGGCCACTTTGTCCTTCACTTGT gave a binding signal (log2 normalized intensity) of 1.5. In the case of AGGGGTTAGGTAAACATTTGTTGAGTGAGT, the binding signal (log2 normalized intensity) is reported as 1.27. AACCAAATGCACACACAATAAGGACTTTGG gave a binding signal (log2 normalized intensity) of 3.35. AAGTCAATGAGCATTTCACAATTCGTTCAT was tested, and the binding signal (log2 normalized intensity) was -0.141. Sequence GGTTCCAGCATGGACTTCACAGCCTGTTAG has a binding signal (log2 normalized intensity) of 0.0676. ATCAAAGGCCTTCCTATCTCTACTTGCCGA was tested, and the binding signal (log2 normalized intensity) was -1.16. In the case of TTTGCAGAGGGAAAGCGAGAGAGCCTGGAC, the binding signal (log2 normalized intensity) is reported as -1.14. With ACTAAAGGTTAAACATGTACTCTGTACTCC the binding signal (log2 normalized intensity) was 2.66. With TCCCCACCCGGTGTGCGTGGGTGGGAAATC the binding signal (log2 normalized intensity) was 1.7. Sequence ATCAAGATCACTGCCTTGGAGGCACTCCCA has a binding signal (log2 normalized intensity) of -1.16. Work on TCAGGTCCAAGGAACCTCACGCGCTCCCTG yielded a binding signal (log2 normalized intensity) of -0.989. With AAAAGCCGGGGAAAGGGAAAAAGGGAGATA the binding signal (log2 normalized intensity) was -1.18. Work on CCTAAACCTGCAAACCTTTGACCTTTCCAT yielded a binding signal (log2 normalized intensity) of 5.52. GAGGTTCCTGGAACTCTGACCTTTGCCCCC gave a binding signal (log2 normalized intensity) of 10.5. CAAGAGGACAAGGTTCAAAAGCTACCTGTT gave a binding signal (log2 normalized intensity) of 1.07. In the case of AAAAGGCCCCAGGGATTGCACAGGATGCCA, the binding signal (log2 normalized intensity) is reported as -1.15. Sequence AGCTCTTCTGTGCCTCCCAAATGCAAACAG has a binding signal (log2 normalized intensity) of 1.32. CGCTGCTTCCACCAGGGCTAGACCCGTCAG was tested, and the binding signal (log2 normalized intensity) was -1.13. Work on GAGCCCAGACAAGCATTCTGCTGAAGGAGC yielded a binding signal (log2 normalized intensity) of -1.13. TGCCTGGCTCAGCATTCTGAGGGCCTCCAA gave a binding signal (log2 normalized intensity) of -1.02. Work on AATCGACCTTTAGCACCGTAAGAGAGTATT yielded a binding signal (log2 normalized intensity) of 3.82. In the case of GCTGATTGCTCAACCCAAAGCATGTCCAGA, the binding signal (log2 normalized intensity) is reported as -1.17. For TCCTTTTCTTTCACATACAAAATTTACTTT, the binding signal (log2 normalized intensity) was 1.58.
